# Data as given in PubChem BioAssay AID504332 (National Center for Advancing Translational Sciences (NCATS), 2011).
# “And” between values parts separate entries of the source, which are not always exact repeats. Equal values may be shown once. Hit rate of the full screen: of about 350,000 compounds, about 31,000 (8.9%) were called active. This list was built around the results that the source calls inconclusive (neither active nor inactive); the mix of calls is not that of the screen. Calls follow the shape of the dose curve; as a rule, active = well fitted inhibition curve with a large enough effect; inconclusive = small, poorly fitted or top-dose-only effect; inactive = no such curve, though single readings can be large or run the other way. Potencies of inconclusive entries are doubtful fits and often do not repeat. Some compounds were tested as several samples or in several runs, with calls that do not always agree.
# Molecular target: Histone-lysine N-methyltransferase EHMT2 (Homo sapiens) (UniProt Q96KQ7)
# Chain of UniProt Q96KQ7 (Q96KQ7 whole entry, looked up): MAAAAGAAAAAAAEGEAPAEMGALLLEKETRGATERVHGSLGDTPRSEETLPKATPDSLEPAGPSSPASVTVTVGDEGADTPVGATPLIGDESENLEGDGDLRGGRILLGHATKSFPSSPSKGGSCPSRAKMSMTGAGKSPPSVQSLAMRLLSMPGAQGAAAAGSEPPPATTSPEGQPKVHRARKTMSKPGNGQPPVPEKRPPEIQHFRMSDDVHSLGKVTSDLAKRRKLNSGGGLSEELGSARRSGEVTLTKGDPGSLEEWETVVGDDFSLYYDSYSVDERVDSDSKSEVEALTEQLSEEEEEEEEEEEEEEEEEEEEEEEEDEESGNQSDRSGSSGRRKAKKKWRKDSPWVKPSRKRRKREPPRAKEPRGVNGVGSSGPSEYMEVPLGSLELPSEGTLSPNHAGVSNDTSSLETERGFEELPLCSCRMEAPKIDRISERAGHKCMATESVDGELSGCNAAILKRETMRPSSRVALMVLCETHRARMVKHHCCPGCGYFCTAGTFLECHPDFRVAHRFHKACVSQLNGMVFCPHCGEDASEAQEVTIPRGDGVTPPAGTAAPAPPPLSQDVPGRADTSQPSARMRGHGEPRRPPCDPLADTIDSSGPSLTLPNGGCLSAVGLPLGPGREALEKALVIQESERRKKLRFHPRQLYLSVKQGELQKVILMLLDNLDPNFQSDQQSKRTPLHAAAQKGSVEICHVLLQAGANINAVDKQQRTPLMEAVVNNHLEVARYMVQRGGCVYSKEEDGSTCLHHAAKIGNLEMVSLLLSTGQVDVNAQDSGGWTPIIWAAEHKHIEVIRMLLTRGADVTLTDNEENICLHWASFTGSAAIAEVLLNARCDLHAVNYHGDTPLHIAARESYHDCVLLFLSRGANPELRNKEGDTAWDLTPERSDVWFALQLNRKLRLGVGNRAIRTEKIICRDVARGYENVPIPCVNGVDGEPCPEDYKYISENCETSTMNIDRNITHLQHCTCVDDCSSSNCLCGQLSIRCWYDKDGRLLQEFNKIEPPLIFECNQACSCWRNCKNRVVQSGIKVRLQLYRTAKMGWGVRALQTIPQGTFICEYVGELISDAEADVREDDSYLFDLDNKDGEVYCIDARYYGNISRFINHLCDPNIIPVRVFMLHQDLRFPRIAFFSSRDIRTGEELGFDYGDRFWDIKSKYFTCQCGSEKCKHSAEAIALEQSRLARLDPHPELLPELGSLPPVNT
# Experiment: qHTS Assay for Inhibitors of Histone Lysine Methyltransferase G9a; also: nearly all actives have a fitted effect of over 75% in size
# Conditions: G9a H3K9 monomethylation, AlphaScreen, 2 h; activity, negative = inhibition: at 59 µM (top of the series) unless noted
# Outline: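 AlphaScreen detection with an anti-monomethyl H3K9 antibody quantified product after a 2 h room-temperature reaction containing 500 nM biotinylated H3K9 peptide, 20 µM SAM and 20 nM enzyme, which had been preincubated 15 min with compound.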
# % is scaled to controls: 0 for no effect and ±100 for the full control effect; potency is read from the fitted curve at half-maximal effect; tags tell the direction and shape of the fitted curve.
SMILES,Potency,"activity, negative = inhibition"
CN1CCN(S(=O)(=O)c2cccc(C(=O)N(C)CC(=O)Nc3ccc(F)c(F)c3F)c2)CC1,active: 1.78 µM,
Fc1cccc(Cc2noc(CN3CCCN(C4Cc5ccccc5C4)CC3)n2)c1,"inconclusive: 31.6 µM [inhibitor, partial curve]",
Oc1ccc(/C=N/NC(=S)N/N=C/c2ccc(O)cc2)cc1,"inconclusive: 39.8 µM [inhibitor, partial curve, poor fit]",
NC(=S)N/N=C/c1ccc2ccccc2c1,,inactive: -15.9%
CC(OC(=O)/C=C/c1ccc2ccccc2n1)C(=O)Nc1ccc(S(N)(=O)=O)cc1 (stereo unspecified),"inconclusive: 44.7 µM [inhibitor, partial curve, poor fit]",
Fc1ccc(CN2CCSCC2)cc1F,active: 31.6 µM,
CCc1ccc(CN(C)CC(O)COc2cccc3ccccc23)cc1 (stereo unspecified),active: 22.4 µM,
CCSc1oc(-c2ccco2)nc1S(=O)(=O)c1ccccc1,"inconclusive: 28.2 µM [inhibitor, single point]",
Cc1c(NC(=S)NC(=O)c2ccc(-c3ccc(Cl)cc3)o2)cccc1C(=O)O,active: 44.7 µM,
COc1cccc(CNc2nc3ccccc3n2CCN2CCCCC2)c1,"inconclusive: 3.98 µM [inhibitor, single point]",
CCOC(=O)c1sc2nc(NC(=O)COc3ccccc3)sc2c1C,"inconclusive: 8.91 µM [inhibitor, partial curve, poor fit]",
Cc1cc(C(=O)O)c2ccccc2n1,"inconclusive: 89.1 µM [inhibitor, single point]",
O=c1cc(O)nc(-c2ccc(Cl)cc2)s1,active: 28.2 µM,
CCOc1ccc(S(=O)(=O)N(CC(=O)NCc2ccccc2OC)c2ccccc2)cc1,,inactive: -4.52%
COc1cc(/C=N/NC(=O)CNC(=O)c2cccs2)ccc1O,"inconclusive: 3.55 µM [inhibitor, single point]",
COc1cc(OC)cc(C(=O)N[C@H](C(=O)OCC(=O)Nc2sccc2C#N)C(C)C)c1,"inconclusive: 20 µM [inhibitor, full curve]",
Cc1nc(NCCc2ccccc2)sc1C(=O)N(C)C,active: 25.1 µM,
O=C(CCC1CCCCC1)NCc1ccncc1,"inconclusive: 50.1 µM [inhibitor, partial curve]",
O=C(c1cc(-c2cccc(O)c2)on1)N1CCCC1,active: 50.1 µM,
Cc1ccc(/C(=C\CN2CCCC2)c2ccccn2)cc1,inactive and active: 7.52 µM,
Cc1cc(NC(=O)C2CC2)n(-c2nc3ccccc3s2)n1,"inconclusive: 50.1 µM [inhibitor, partial curve, poor fit]",
CC1CCCCC1NC(=O)c1ccc(CSc2nc3ccncc3[nH]2)cc1 (stereo unspecified),"inconclusive: 89.1 µM [inhibitor, single point]",
O=C(CN1CCOCC1)Nc1ncc(Cc2cccc3ccccc23)s1,"inconclusive: 25.1 µM [inhibitor, single point]",

SMILES,Potency,"activity, negative = inhibition"
CCOC(=O)c1[nH]c(C)c(C(=O)N2CCN(C(=O)c3ccco3)CC2)c1C,"inconclusive: 39.8 µM [inhibitor, single point]",
CCOC(=O)C1(CCOc2ccccc2)CCN(Cc2ccc(C#CCCO)cc2)CC1,,inactive: -13.7% [at 102 µM]
Cc1cc2c(SCC(=O)NC3CCCCC3)ncnc2s1,"inconclusive: 31.6 µM [inhibitor, single point]",
O=C(NNC(=S)NCCCN1CCOCC1)c1ccncc1,active: 20 µM,
NS(=O)(=O)c1ccc(NC(=S)N2CCC(Cc3ccccc3)CC2)cc1,active: 14.1 µM,
CCOCCCNC(=S)NCCNc1nc2ccc(C)cc2cc1C#N,"inconclusive: 79.4 µM [inhibitor, partial curve, poor fit]",
O=C(c1ccco1)N1CCN(c2ncnc3c2nnn3Cc2ccccc2Cl)CC1,"inconclusive: 39.8 µM [inhibitor, single point]",
CC1CCC(NC(=O)C2CCC(CNc3c(N4CCCCC4)c(=O)c3=O)CC2)CC1 (stereo unspecified),,inactive: -8.06%
COCCNc1nnc(SCC(=O)NNC(=O)c2ccco2)s1,"inconclusive: 31.6 µM [inhibitor, single point]",
O=C1OCCC1Sc1nc2cc(Cl)ccc2n1Cc1ccccc1 (stereo unspecified),"inconclusive: 31.6 µM [inhibitor, partial curve, poor fit]",
Cc1cc(C)c(C#N)c(SC2CCCCC2=O)n1 (stereo unspecified),"inconclusive: 7.08 µM [inhibitor, single point]",
O=C(N/N=C/c1cc2c3c(c1O)CCCN3CCC2)c1ccccc1O,"inconclusive: 7.08 µM [inhibitor, full curve, poor fit]",
COc1cc(CN2CCN(c3ccccc3F)CC2)cc(OC)c1O,"inconclusive: 3.98 µM [inhibitor, full curve, poor fit]",
CC(C)N(C)C1CCN(S(=O)(=O)c2ccc3[nH]c(=O)ccc3c2)CC1,,inactive: 1.84%
O=C(CCC(=O)c1cccs1)NNC(=O)c1ccccc1O,,inactive: 17.6% [at 12.7 µM]
CN1C(=O)/C(=C/c2ccccc2OCc2ccccc2F)NC1=S,,inactive: 5.33% [at 102 µM]
Cc1ccc(NC2c3ncccc3C(=O)N2c2ccccc2C)cc1C (stereo unspecified),"inconclusive: 12.6 µM [inhibitor, partial curve, poor fit]",
CC(C)(C)CN1CCN(Cc2nc(-c3ccc(F)cc3)cs2)CC1CCO (stereo unspecified),"inconclusive: 89.1 µM [inhibitor, single point]",
COc1ccc(NC(=O)Cn2c(SCc3ccc(F)cc3)nc3cccnc32)cc1OC,,inactive: -31.7%
Cc1cc(/C=N/NC(N)=O)c(C)n1-c1ccc(F)cc1,"inconclusive: 39.8 µM [inhibitor, single point]",
CCc1ccc[n+](-c2[nH]c(=O)sc2/C=N/N=C(\[O-])c2ccncc2)c1,active: 39.8 µM,
Cc1cccc(N(CC(=O)NC(C)(C)C)C(=O)CS(=O)CC(=O)Nc2ccc(F)cc2)c1 (stereo unspecified),"inconclusive: 70.8 µM [inhibitor, partial curve, poor fit]",
Cc1ccc(C)c(Cn2nnc3c(=O)[nH]c(C(=O)NCC4CCCO4)nc32)c1 (stereo unspecified),,inactive: -9.96%
